# Measured values reported in the supplement of paper PMC10369915.
# This is one part of the list. No stated cut-off is given here; in the data, active = 3.2 or more and inactive = the rest. Most of these values are background signal.
# Target: SHP2 C-SH2 domain E139D
# Experiment: enrichment score (SH2-bound / input frequency) (ratio); bacterial display of known human phosphotyrosine sites (pTyr-Var adds point mutants) read by sequencing; higher = stronger binding; tyrosines were phosphorylated by kinases first
# Settings: peptide library: pTyr-Var
# 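Further: displayed peptides selected on beads carrying the immobilized SH2 domain, with library peptides lacking any tyrosine serving as negative controls.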
row,Binder,enrichment score
1,VTAALYGRLYE [BTD_Y536],inactive: 1.4
2,VTAALYGCLFE [BTD_Y536_R538C_YF],inactive: 1.18
3,VMAALYGRLFE [BTD_Y536_T532M_YF],active: 3.42
4,GVIRHSVVCST [BTK_Y334_Y334S],inactive: 0.91
5,PELINYHQHNS [BTK_Y361],inactive: 1.38
6,PELINYQQHNS [BTK_Y361_H362Q],inactive: 0.804
7,PELINYHQHNF [BTK_Y361_S366F],inactive: 0.94
8,PELINCHQHNS [BTK_Y361_Y361C],inactive: 1.63
9,HKLSYYEYDFE [BTK_Y40],inactive: 1.41
10,HKLSSYEFDFE [BTK_Y40_Y39S_YF],inactive: 0.732
11,HKLSFCEFDFE [BTK_Y40_Y40C_YF],inactive: 0.799
12,HKLSFNEFDFE [BTK_Y40_Y40N_YF],inactive: 0.988
13,KWRGQYDVANK [BTK_Y425_I429N],inactive: 1.45
14,KWRGQYDVAIE [BTK_Y425_K430E],inactive: 0.799
15,KWRGQYDVAIR [BTK_Y425_K430R],inactive: 1.9
16,KLVQLYGVCTK [BTK_Y461],inactive: 1.3
17,CETMEYLESKQ [BTK_Y511_A508T],inactive: 0.94
18,CEAIEYLESKQ [BTK_Y511_M509I],inactive: 0.881

# Target: SHP2 C-SH2 domain wild-type
# Experiment: as above
# Settings: peptide library: pTyr-Var
row,Binder,enrichment score
1,VTAALYGRLYE [BTD_Y536],inactive: 1.37
2,VTAALYGCLFE [BTD_Y536_R538C_YF],inactive: 1.43
3,VMAALYGRLFE [BTD_Y536_T532M_YF],active: 3.51
4,GVIRHSVVCST [BTK_Y334_Y334S],inactive: 0.869
5,PELINYHQHNS [BTK_Y361],inactive: 0.95
6,PELINYQQHNS [BTK_Y361_H362Q],inactive: 0.71
7,PELINYHQHNF [BTK_Y361_S366F],inactive: 0.844
8,PELINCHQHNS [BTK_Y361_Y361C],inactive: 1.56
9,HKLSYYEYDFE [BTK_Y40],inactive: 1.42
10,HKLSSYEFDFE [BTK_Y40_Y39S_YF],inactive: 0.587
11,HKLSFCEFDFE [BTK_Y40_Y40C_YF],inactive: 0.968
12,HKLSFNEFDFE [BTK_Y40_Y40N_YF],inactive: 0.556
13,KWRGQYDVANK [BTK_Y425_I429N],inactive: 1.13
14,KWRGQYDVAIE [BTK_Y425_K430E],inactive: 1.04
15,KWRGQYDVAIR [BTK_Y425_K430R],inactive: 1.84
16,KLVQLYGVCTK [BTK_Y461],inactive: 1.49
17,CETMEYLESKQ [BTK_Y511_A508T],inactive: 1.05
18,CEAIEYLESKQ [BTK_Y511_M509I],inactive: 1.44

# Target: SHP2 N-SH2 domain L43F
# Experiment: as above
# Settings: peptide library: pTyr-Var
row,Binder,enrichment score
1,VTAALYGRLYE [BTD_Y536],inactive: 1.23
2,VTAALYGCLFE [BTD_Y536_R538C_YF],inactive: 1.33
3,VMAALYGRLFE [BTD_Y536_T532M_YF],active: 3.33
4,GVIRHSVVCST [BTK_Y334_Y334S],inactive: 0.793
5,PELINYHQHNS [BTK_Y361],inactive: 1.03
6,PELINYQQHNS [BTK_Y361_H362Q],inactive: 0.633
7,PELINYHQHNF [BTK_Y361_S366F],inactive: 1.03
8,PELINCHQHNS [BTK_Y361_Y361C],inactive: 1.43
9,HKLSYYEYDFE [BTK_Y40],inactive: 2.01
10,HKLSSYEFDFE [BTK_Y40_Y39S_YF],inactive: 0.584
11,HKLSFCEFDFE [BTK_Y40_Y40C_YF],inactive: 0.714
12,HKLSFNEFDFE [BTK_Y40_Y40N_YF],inactive: 0.825
13,KWRGQYDVANK [BTK_Y425_I429N],inactive: 1.15
14,KWRGQYDVAIE [BTK_Y425_K430E],inactive: 1.06
15,KWRGQYDVAIR [BTK_Y425_K430R],inactive: 1.87
16,KLVQLYGVCTK [BTK_Y461],inactive: 1.39
17,CETMEYLESKQ [BTK_Y511_A508T],inactive: 0.818
18,CEAIEYLESKQ [BTK_Y511_M509I],inactive: 1.08

# Target: SHP2 N-SH2 domain T42A
# Experiment: as above
# Settings: peptide library: pTyr-Var
row,Binder,enrichment score
1,VTAALYGRLYE [BTD_Y536],inactive: 1.05
2,VTAALYGCLFE [BTD_Y536_R538C_YF],inactive: 1.02
3,VMAALYGRLFE [BTD_Y536_T532M_YF],inactive: 2.87
4,GVIRHSVVCST [BTK_Y334_Y334S],inactive: 0.709
5,PELINYHQHNS [BTK_Y361],inactive: 0.977
6,PELINYQQHNS [BTK_Y361_H362Q],inactive: 0.616
7,PELINYHQHNF [BTK_Y361_S366F],inactive: 0.704
8,PELINCHQHNS [BTK_Y361_Y361C],inactive: 1.16
9,HKLSYYEYDFE [BTK_Y40],inactive: 1.73
10,HKLSSYEFDFE [BTK_Y40_Y39S_YF],inactive: 0.491
11,HKLSFCEFDFE [BTK_Y40_Y40C_YF],inactive: 0.729
12,HKLSFNEFDFE [BTK_Y40_Y40N_YF],inactive: 0.438
13,KWRGQYDVANK [BTK_Y425_I429N],inactive: 1.05
14,KWRGQYDVAIE [BTK_Y425_K430E],inactive: 0.768
15,KWRGQYDVAIR [BTK_Y425_K430R],inactive: 1.82
16,KLVQLYGVCTK [BTK_Y461],inactive: 1.21
17,CETMEYLESKQ [BTK_Y511_A508T],inactive: 0.845
18,CEAIEYLESKQ [BTK_Y511_M509I],inactive: 1.03

# Target: SHP2 N-SH2 domain T52S
# Experiment: as above
# Settings: peptide library: pTyr-Var
row,Binder,enrichment score
1,VTAALYGRLYE [BTD_Y536],inactive: 1.38
2,VTAALYGCLFE [BTD_Y536_R538C_YF],inactive: 1.08
3,VMAALYGRLFE [BTD_Y536_T532M_YF],inactive: 3.12
4,GVIRHSVVCST [BTK_Y334_Y334S],inactive: 0.748
5,PELINYHQHNS [BTK_Y361],inactive: 1.43
6,PELINYQQHNS [BTK_Y361_H362Q],inactive: 0.627
7,PELINYHQHNF [BTK_Y361_S366F],inactive: 1.17
8,PELINCHQHNS [BTK_Y361_Y361C],inactive: 1.52
9,HKLSYYEYDFE [BTK_Y40],inactive: 1.93
10,HKLSSYEFDFE [BTK_Y40_Y39S_YF],inactive: 0.642
11,HKLSFCEFDFE [BTK_Y40_Y40C_YF],inactive: 0.802
12,HKLSFNEFDFE [BTK_Y40_Y40N_YF],inactive: 0.544
13,KWRGQYDVANK [BTK_Y425_I429N],inactive: 1.27
14,KWRGQYDVAIE [BTK_Y425_K430E],inactive: 0.816
15,KWRGQYDVAIR [BTK_Y425_K430R],inactive: 2.05
16,KLVQLYGVCTK [BTK_Y461],inactive: 1.15
17,CETMEYLESKQ [BTK_Y511_A508T],inactive: 0.606
18,CEAIEYLESKQ [BTK_Y511_M509I],inactive: 0.918

# Target: SHP2 N-SH2 domain wild-type
# Experiment: as above
# Settings: peptide library: pTyr-Var
row,Binder,enrichment score
1,VTAALYGRLYE [BTD_Y536],inactive: 1.38
2,VTAALYGCLFE [BTD_Y536_R538C_YF],inactive: 1.55
3,VMAALYGRLFE [BTD_Y536_T532M_YF],active: 3.49
4,GVIRHSVVCST [BTK_Y334_Y334S],inactive: 0.844
5,PELINYHQHNS [BTK_Y361],inactive: 1.36
6,PELINYQQHNS [BTK_Y361_H362Q],inactive: 0.801
7,PELINYHQHNF [BTK_Y361_S366F],inactive: 1.1
8,PELINCHQHNS [BTK_Y361_Y361C],inactive: 1.38
9,HKLSYYEYDFE [BTK_Y40],inactive: 1.78
10,HKLSSYEFDFE [BTK_Y40_Y39S_YF],inactive: 0.599
11,HKLSFCEFDFE [BTK_Y40_Y40C_YF],inactive: 0.741
12,HKLSFNEFDFE [BTK_Y40_Y40N_YF],inactive: 0.923
13,KWRGQYDVANK [BTK_Y425_I429N],inactive: 1.17
14,KWRGQYDVAIE [BTK_Y425_K430E],inactive: 1.1
15,KWRGQYDVAIR [BTK_Y425_K430R],inactive: 1.95
16,KLVQLYGVCTK [BTK_Y461],inactive: 1.73
17,CETMEYLESKQ [BTK_Y511_A508T],inactive: 1.1
18,CEAIEYLESKQ [BTK_Y511_M509I],inactive: 1.57
